From a collection of fitness landscapes (doi:10.1038/s41467-024-54723-y)
In all, about 18,000 sequences were measured (“TetR repression strength (sort-seq, GFP reporter)”: median about 0.23, highest 2% from about 0.68 on). The list shows a part of the results.

What follows are sequences tested against TetR (class B, Tn10) (UniProt P04483) (assay: TetR repression strength (sort-seq, GFP reporter) (relative to tetO2 = 1); higher = stronger repression). Conditions: E. coli.
Sequence of UniProt P04483 (P04483 whole entry): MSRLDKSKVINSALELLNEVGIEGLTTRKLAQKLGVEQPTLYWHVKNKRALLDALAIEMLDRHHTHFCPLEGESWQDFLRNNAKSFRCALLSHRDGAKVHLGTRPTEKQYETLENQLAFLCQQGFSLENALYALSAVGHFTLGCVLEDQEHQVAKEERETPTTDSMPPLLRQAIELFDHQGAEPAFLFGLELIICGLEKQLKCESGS
Summary of the method: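 Escherichia coli SIG10-MAX cells carried a low-copy plasmid library in which eight operator positions were randomized between a constitutive promoter and sfGFP, and TetR was expressed constitutively. After 5 h of growth at 37 °C in LB with 50 µg/mL chloramphenicol, 10^6 cells were FACS-sorted into 13 fluorescence bins, and each bin was Illumina-sequenced. Repression strength was the top bin index plus one minus the read-weighted mean bin, divided by the value for the unaltered operator. Across three independent transformations, only library members with ≥30 reads in every replicate and a CV ≤0.5 were averaged.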
Work on TCCCGTGAAGTCCCAGAGA yielded a TetR repression strength of 0.325.
Work on TCCCTAAAAGTAAGGGAGA yielded a TetR repression strength of 0.24.
For TCCCCCAGAGTGGAGGAGA, the TetR repression strength was 0.179.
TCCCCCAGAGTTGGGGAGA gave a TetR repression strength of 0.104.
With TCCCACCAAGTTTGAGAGA the TetR repression strength was 0.283.
For TCCCGTTCAGTGCTTGAGA, the TetR repression strength was 0.367.
Sequence TCCCGGGTAGTATTGGAGA has a TetR repression strength of 0.223.
TCCCGGAGAGTGGCGGAGA showed a TetR repression strength of 0.0439.
TCCCGAGAAGTTAGCGAGA was tested, and the TetR repression strength was 0.219.
With TCCCATTTAGTCGAGGAGA the TetR repression strength was 0.136.
TCCCTGTTAGTGCGGGAGA gave a TetR repression strength of 0.226.
In the case of TCCCTCGAAGTGGGGGAGA, the TetR repression strength is reported as 0.0994.
TCCCGCATAGTCTGCGAGA was tested, and the TetR repression strength was 0.187.
With TCCCTCGGAGTACCCGAGA the TetR repression strength was 0.0592.
Work on TCCCTAATAGTAGGCGAGA yielded a TetR repression strength of 0.509.
TCCCGCCGAGTGGGGGAGA showed a TetR repression strength of 0.13.
In the case of TCCCGGCTAGTCGAAGAGA, the TetR repression strength is reported as 0.581.
Work on TCCCGGTTAGTTGCAGAGA yielded a TetR repression strength of 0.131.
TCCCATCGAGTGCTGGAGA showed a TetR repression strength of 0.277.
Work on TCCCTCGAAGTGTTGGAGA yielded a TetR repression strength of 0.154.
Work on TCCCGTAGAGTCAAAGAGA yielded a TetR repression strength of 0.207.
TCCCGAATAGTGCTCGAGA showed a TetR repression strength of 0.0571.
For TCCCTGCTAGTTAGGGAGA, the TetR repression strength was 0.181.
Sequence TCCCCCTGAGTAGGCGAGA has a TetR repression strength of 0.179.
TCCCTAGGAGTCCCGGAGA gave a TetR repression strength of 0.261.
TCCCACCCAGTATCAGAGA was tested, and the TetR repression strength was 0.2.
With TCCCATGGAGTAGAGGAGA the TetR repression strength was 0.226.
Sequence TCCCCAGTAGTGTAAGAGA has a TetR repression strength of 0.139.
In the case of TCCCTGACAGTTGGCGAGA, the TetR repression strength is reported as 0.301.
TCCCATGCAGTACACGAGA was tested, and the TetR repression strength was 0.222.
TCCCTCCTAGTCCGCGAGA gave a TetR repression strength of 0.574.
In the case of TCCCGTCCAGTCGGGGAGA, the TetR repression strength is reported as 0.38.
Sequence TCCCAGGAAGTCCCGGAGA has a TetR repression strength of 0.2.
With TCCCCTCAAGTGTCGGAGA the TetR repression strength was 0.258.
Work on TCCCCGACAGTTGGGGAGA yielded a TetR repression strength of 0.201.
In the case of TCCCGCTCAGTTGCAGAGA, the TetR repression strength is reported as 0.165.
TCCCAGTTAGTGATTGAGA gave a TetR repression strength of 0.173.
TCCCGATGAGTTGCTGAGA gave a TetR repression strength of 0.124.
TCCCAGTGAGTGTCAGAGA showed a TetR repression strength of 0.232.
With TCCCGCTAAGTGAAGGAGA the TetR repression strength was 0.207.
For TCCCAACAAGTCAGTGAGA, the TetR repression strength was 0.274.
TCCCGGGGAGTAGCTGAGA was tested, and the TetR repression strength was 0.709.
With TCCCGCAAAGTGGTGGAGA the TetR repression strength was 0.0518.
For TCCCTATTAGTCTACGAGA, the TetR repression strength was 0.327.
TCCCACCGAGTGTCGGAGA showed a TetR repression strength of 0.13.
TCCCGTAAAGTTACAGAGA was tested, and the TetR repression strength was 0.232.
Sequence TCCCTGTTAGTATTGGAGA has a TetR repression strength of 0.179.
For TCCCAATGAGTGTGAGAGA, the TetR repression strength was 0.213.
In the case of TCCCGCCAAGTAGAGGAGA, the TetR repression strength is reported as 0.279.
Work on TCCCTTCTAGTGAGTGAGA yielded a TetR repression strength of 0.246.
TCCCATTTAGTATTCGAGA gave a TetR repression strength of 0.215.
